Reference: the supplement of paper PMC7826260
Some of the results follow. One pool of 16,384 single-stranded DNAs met each Rep nickase domain in vitro for 1 h at 37 °C with 3 µM enzyme; only the middle of the 90-letter strands is printed. A value is the log2 ratio of uncut reads to the pool without enzyme; uncut sequences lie near 0, cut ones below; no hit call is given. Shares of all reads are compared, so uncut sequences can rise above 0 when many others are cut.

What was measured:
Test in all cases: uncleaved DNA left, log2 of reads against the no-enzyme library (log2 ratio); higher = less cleavage (more negative = more Rep cleavage of the k-mer); sequences stand for … in CTCGTCCG…ACCGGAGA
[1] = test system: T1, Rep nickase domain of Muscovy duck circovirus
T1 sequence (protein, residues 1-111, tag omitted): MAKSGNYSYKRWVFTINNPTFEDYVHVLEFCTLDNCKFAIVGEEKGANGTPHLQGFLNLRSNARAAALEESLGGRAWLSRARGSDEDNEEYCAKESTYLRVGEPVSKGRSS
Procedure: (§1)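 A pool of 90-nt single-stranded DNAs with seven random bases just before the constant AC of the nick site (name = the seven bases) was cut by 3 µM recombinant His6-SUMO-tagged Rep nickase domain (300 nM DNA, 50 mM HEPES pH 8.0, 50 mM NaCl, 1 mM MnCl2, 1 h, 37 °C, three replicates). Uncut DNA was amplified and sequenced.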

[2] = test system: T2, Rep nickase domain of banana bunchy top virus
T2 sequence (protein, residues 1-94, tag omitted): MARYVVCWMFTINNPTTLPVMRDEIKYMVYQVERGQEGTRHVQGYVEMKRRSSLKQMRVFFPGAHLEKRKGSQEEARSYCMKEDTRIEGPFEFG
Procedure: as §1

[3] = test system: T3, Rep nickase domain of cabbage leaf curl virus
T3 sequence (protein, residues 1-116, tag omitted): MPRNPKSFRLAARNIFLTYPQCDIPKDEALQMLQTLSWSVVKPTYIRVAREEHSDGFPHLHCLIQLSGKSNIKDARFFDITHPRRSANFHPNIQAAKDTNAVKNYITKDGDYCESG
Procedure: as §1

[4] = test system: T4, Rep nickase domain of chickpea chlorotic dwarf virus
T4 sequence (protein, residues 1-124, tag omitted): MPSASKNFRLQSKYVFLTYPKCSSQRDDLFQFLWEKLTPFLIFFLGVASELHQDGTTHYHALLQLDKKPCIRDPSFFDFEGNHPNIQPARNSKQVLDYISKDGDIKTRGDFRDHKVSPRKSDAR
Procedure: as §1

[5] = test system: T5, Rep nickase domain of faba bean necrotic yellows virus
T5 sequence (protein, residues 1-98, tag omitted): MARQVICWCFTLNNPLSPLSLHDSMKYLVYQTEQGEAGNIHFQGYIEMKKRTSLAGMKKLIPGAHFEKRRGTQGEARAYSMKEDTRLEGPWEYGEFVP
Procedure: as §1

[6] = test system: T6, Rep nickase domain of maize striate mosaic virus
T6 sequence (protein, residues 1-117, tag omitted): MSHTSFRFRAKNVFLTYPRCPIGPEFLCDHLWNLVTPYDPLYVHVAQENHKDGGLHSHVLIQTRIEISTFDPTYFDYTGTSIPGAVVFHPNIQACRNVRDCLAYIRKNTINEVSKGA
Procedure: as §1

[7] = test system: T7, Rep nickase domain of porcine circovirus 2
T7 sequence (protein, residues 2-116, tag omitted): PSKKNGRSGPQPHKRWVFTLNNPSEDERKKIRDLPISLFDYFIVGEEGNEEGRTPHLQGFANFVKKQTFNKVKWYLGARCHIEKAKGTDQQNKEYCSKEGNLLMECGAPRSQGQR
Procedure: as §1

[8] = test system: T8, Rep nickase domain of tomato golden mosaic virus
T8 sequence (protein, residues 1-124, tag omitted): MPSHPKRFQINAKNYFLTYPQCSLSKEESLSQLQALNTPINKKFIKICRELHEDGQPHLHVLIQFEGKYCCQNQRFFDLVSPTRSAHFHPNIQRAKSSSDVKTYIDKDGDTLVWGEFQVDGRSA
Procedure: as §1

[9] = test system: T9, Rep nickase domain of tomato yellow leaf curl virus
T9 sequence (protein, residues 1-136, tag omitted): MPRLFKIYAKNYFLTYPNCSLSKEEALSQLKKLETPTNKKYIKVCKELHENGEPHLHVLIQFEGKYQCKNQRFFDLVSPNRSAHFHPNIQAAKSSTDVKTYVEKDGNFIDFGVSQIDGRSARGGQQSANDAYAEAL
Procedure: as §1

[10] = test system: T10, Rep nickase domain of wheat dwarf virus
T10 sequence (protein, residues 1-137, tag omitted): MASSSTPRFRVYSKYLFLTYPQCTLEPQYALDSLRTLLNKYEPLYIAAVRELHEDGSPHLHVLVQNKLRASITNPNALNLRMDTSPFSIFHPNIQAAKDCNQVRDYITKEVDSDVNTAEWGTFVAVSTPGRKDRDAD
Procedure: as §1

Sequence	uncleaved DNA left (log2) [1]	uncleaved DNA left (log2) [2]	uncleaved DNA left (log2) [3]	uncleaved DNA left (log2) [4]	uncleaved DNA left (log2) [5]	uncleaved DNA left (log2) [6]	uncleaved DNA left (log2) [7]	uncleaved DNA left (log2) [8]	uncleaved DNA left (log2) [9]	uncleaved DNA left (log2) [10]
GCTGGTG	0.0907	-0.115	-0.565	-0.336	0.00596	-0.81	0.118	0.0677	-0.012	-0.183
TGGACGC	0.0255	0.117	0.772	1.83	-0.0844	2.04	0.111	0.0139	-0.0771	-0.00801
ATCGGGC	0.00943	-0.0125	0.415	0.505	-0.114	0.557	0.102	-0.00674	-0.167	-0.0446
GGTAGGG	0.0418	-0.0181	0.188	0.533	-0.0772	0.31	0.0753	0.000228	-0.045	0.0136
ACCTCTC	0.117	0.0159	0.0567	-0.273	0.0131	-0.344	-0.0149	0.0171	-0.0495	0.0104
CTTCCTG	-0.161	-0.157	-0.293	-0.91	-0.219	-0.719	-0.0703	-0.161	-0.0266	-0.0641
GACTGCA	-0.0519	-0.0827	-0.303	-0.143	0.0111	-0.287	-1.93	0.0549	0.00101	-0.00951
TGAAGTG	0.0652	-0.119	-0.542	-0.671	-0.0979	-0.985	0.116	-0.0347	-0.141	-0.152
GCATTCT	-0.681	0.0255	-0.032	-0.875	0.0795	-0.291	-0.736	0.0742	0.113	-0.0248
GAACTGT	0.056	-0.0685	0.082	0.24	0.0236	1.17	-0.0175	0.0276	-0.0307	0.153
CCGAGCG	-0.0999	0.0221	-0.383	-0.0662	0.0458	-0.815	0.151	-0.0271	0.237	-0.0128
AGCCAGC	-0.0109	0.0757	-0.0348	-0.014	0.0601	-0.376	0.0528	-0.0123	0.0481	-0.0278
CATTCTC	-1.92	-2.55	-0.102	-0.444	-0.0444	-0.861	-2.01	-0.134	0.0181	-0.0622
GCACCAC	0.061	0.0912	-0.0256	0.106	0.0626	0.00711	0.00491	0.0424	0.0736	0.106
CTACTCG	0.0402	-0.0149	-0.957	-1.29	-0.0199	-1.1	0.155	-0.13	-0.0199	-0.141
CTAGCCT	-0.0754	-0.0963	-0.195	-1.99	0.00725	-0.758	-0.222	-0.119	-0.0904	-0.174
TCCAAAG	-0.0478	-0.0329	-0.747	-0.582	0.0107	-1.21	0.161	0.0844	0.116	0.0192
ATGTTGT	0.0478	-0.0504	-0.179	-0.476	0.149	-0.755	-2.33	0.0566	-0.055	-0.0196
CCGCGCA	-0.0902	-0.137	-0.344	-0.404	0.0342	-0.596	-0.056	-0.0886	-0.0603	-0.00937
TAAAGAA	0.00458	-0.0972	-0.472	-2.21	0.132	-0.585	-0.0521	0.0413	-0.0806	-0.187

Sequence	uncleaved DNA left (log2) [1]	uncleaved DNA left (log2) [2]	uncleaved DNA left (log2) [3]	uncleaved DNA left (log2) [4]	uncleaved DNA left (log2) [5]	uncleaved DNA left (log2) [6]	uncleaved DNA left (log2) [7]	uncleaved DNA left (log2) [8]	uncleaved DNA left (log2) [9]	uncleaved DNA left (log2) [10]
TGAACGC	0.0422	0.068	-0.0196	-0.136	0.0979	-0.567	0.0594	-0.0368	0.104	0.0523
ACTGGGG	-0.0256	0.107	0.44	0.852	0.131	0.563	0.231	0.169	-0.0311	0.104
TCGGGAA	0.126	0.0661	0.496	1.2	0.075	1.64	0.0123	-0.0834	-0.214	0.0138
TACGAGA	0.0181	0.0585	0.737	1.13	0.099	1.15	0.0724	0.0723	0.00592	0.0502
GGACCAT	0.0615	0.0433	0.882	1.93	-0.0654	2.3	0.142	-0.0633	0.0536	0.212
TACAAAG	0.0107	0.0512	-0.886	-0.662	0.0386	-1.34	0.116	-0.0266	0.0409	-0.00763
GTCCTGA	0.0242	0.0986	0.31	0.83	-0.16	1.74	-0.0401	0.116	0.0519	0.0915
TTTGTGC	-0.0127	-0.167	-0.954	-0.513	-0.103	-1.15	0.0418	-0.212	-0.0431	-0.0909
GACATCG	0.0953	0.0221	-0.746	-0.292	0.125	-0.839	0.168	0.0166	0.113	0.0434
TTCGTAT	0.0851	0.0129	0.159	-0.438	0.0651	-0.298	-7.87e-06	0.0161	-0.0153	-0.0224
ATGGCGC	-0.0273	-0.152	-0.835	0.0805	0.0323	-0.774	0.0306	0.0142	-0.0644	-0.269
GCTGACG	-0.0089	0.0574	-0.485	-0.37	-0.0305	-0.695	0.135	-0.000608	-0.0114	-0.0697
CATTAAG	-0.0726	-0.0524	-0.544	0.832	-0.0343	-0.242	0.19	0.00404	0.0696	0.00983
GACTGTG	0.0771	0.000535	-0.602	-0.407	-0.00639	-1.04	0.121	-0.069	0.116	-0.0403
GCACATT	0.0394	-0.0275	0.454	1.05	-0.15	1.23	0.00775	-0.203	-0.083	0.0386
CGATCTC	-0.0271	0.000279	-0.0734	0.201	-0.0851	0.856	-0.012	-0.109	-0.00845	0.0796
TTGCCAT	-0.0279	0.00121	-0.268	-0.658	0.016	-0.68	-1.17	0.0313	0.238	0.218
CTTTAAG	-0.0236	-0.0871	-0.807	-0.372	-0.0659	-1.26	0.0182	-0.243	-0.00782	-0.21
AGGCGTC	-0.0986	-0.148	-0.29	-0.324	-0.106	-0.678	0.0173	-0.13	-0.0246	-0.175
TAGCTCC	0.0798	-0.00878	0.0775	-0.0312	0.029	1.06	-0.0868	-0.0668	0.0654	0.0421

Sequence	uncleaved DNA left (log2) [1]	uncleaved DNA left (log2) [2]	uncleaved DNA left (log2) [3]	uncleaved DNA left (log2) [4]	uncleaved DNA left (log2) [5]	uncleaved DNA left (log2) [6]	uncleaved DNA left (log2) [7]	uncleaved DNA left (log2) [8]	uncleaved DNA left (log2) [9]	uncleaved DNA left (log2) [10]
CCAACAA	-0.0422	-0.168	-0.127	-1.44	0.037	-0.68	0.0262	0.0589	-0.0562	0.0546
ATTTAAC	0.0573	-0.0473	-0.464	-1.75	-0.05	-0.976	0.0795	-0.063	-0.0312	-0.124
GTTTCCA	-0.0854	0.0372	0.31	0.818	-0.0952	1.8	0.0976	0.0621	0.0596	0.00941
GAGCGTC	0.0816	0.0929	0.0539	0.348	0.0405	0.581	-0.048	-0.00669	-0.0171	0.08
TGCCGGC	0.0368	0.0376	0.098	0.0812	0.0829	-0.0346	0.0121	0.0256	0.0319	-0.0793
TTCAGAG	0.156	0.144	0.089	-0.0898	-0.0419	-0.494	0.173	0.142	0.00863	0.154
TAGCTGT	0.0876	0.0902	0.279	1.25	-0.0301	1.52	-0.321	0.0245	-0.14	0.0789
TTACAGA	0.083	-0.029	-0.232	-1.8	-0.00981	-0.758	-0.0125	-0.0385	-0.0294	-0.0769
ACAAGGA	-0.0285	-0.00849	0.0605	0.274	0.0426	-0.824	0.0635	0.0215	-0.133	-0.0527
TAGTCTC	-0.565	-0.889	-0.766	-1.09	-0.916	0.0429	-3.29	-0.282	-0.0791	-0.218
GAGCAAG	0.0703	0.0948	-0.26	-0.0881	0.101	-0.432	0.0743	0.187	0.179	-0.0109
CCACTAG	-0.0706	0.0559	-0.831	-0.516	-0.0167	-1	0.0533	0.0305	-0.0676	-0.0582
TTTAACC	-0.193	0.0234	-0.227	-1.6	0.0155	-0.423	-1.06	-0.0176	0.0658	0.0507
GATCGCA	0.0768	0.0846	0.0306	-0.0456	-0.0602	-0.392	0.0381	0.031	0.0697	0.00586
TGACGCC	0.00859	0.0474	0.124	0.367	0.0164	0.673	-0.101	-0.00436	0.00942	0.0228
CCCTAGC	0.112	0.119	-0.0991	-0.304	0.0156	-1.06	0.0622	0.0889	0.0887	0.00249
AAGGTCC	-0.12	-0.051	-0.0306	0.521	-0.168	0.34	-0.0114	-0.0968	-0.216	-0.0586
GTCCATA	0.0604	0.207	0.476	0.955	-0.0506	1.75	0.0955	0.0731	0.0858	0.176
CATCCCA	-0.0334	0.0983	-0.0532	-1.87	0.0501	-0.434	-0.184	-0.0646	0.0409	0.101
TATCGAG	0.0027	-0.0953	-0.0353	-0.0872	0.00633	-0.921	0.114	-0.0695	-0.0446	-0.0216
